# Test results: PubChem BioAssay (Tox21)
# Where “and” joins values, the source holds several entries; their conditions need not be identical. Identical values can stand only once. The inconclusive results got no clear call from the source; some entries with a clear call stand among them for comparison. For some of these results: A potency beside an inconclusive call is a rough fit, not a confirmed value. Calls of active or inactive are those of the source. Unless noted, calls follow the shape of the dose curve; as a rule, active = well fitted curve in the direction sought with a large enough effect in the repeat runs; inconclusive = weak or mixed curves; inactive = no such curve, though single readings can be large; an effect the other way counts as inactive or inconclusive.
# Columns and labels:
# [1] = qHTS assay to identify small molecule agonists of the sonic hedgehog signaling (Shh) pathway - cell viability counter screen (AID 1259366); details: NIH/3T3 Gli1-Luc viability, CellTiter-Fluor, 24 h; series mostly up to 92.4 µM; also: nearly all actives have a fitted effect of over 50% in size
# In short: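 Same-well cytotoxicity read. Gli1-Luc reporter 3T3 cells; compounds 24hr, 37C/5% CO2; CellTiter-Fluor fluorescence.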
# [2] = qHTS assay to identify small molecule antagonists of the sonic hedgehog signaling (Shh) pathway - cell viability counter screen (AID 1259367); details: NIH/3T3 Gli1-Luc viability, CellTiter-Fluor, 24 h; series mostly up to 92.4 µM; also: nearly all actives have a fitted effect of over 55% in size
# In short: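 Tox21 library chemicals were tested on a Gli1-Luc NIH/3T3 clone (2,000 cells/well) stimulated by conditioned medium; viability was quantified as fluorescence from CellTiter-Fluor reagent added at 23 hr.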
# [3] = molecular target: Estrogen receptor beta (Homo sapiens) (UniProt Q92731); assay: qHTS assay to identify small molecule antagonists of the estrogen receptor beta (ER-beta) signaling pathway (AID 1259378; active = well fitted inhibition curve with a large enough effect in the signal ratio in the repeat runs, not every such curve was filed as active; inconclusive = weak or mixed curves, or effect the other way; inactive = no such curve, though single readings can be large or run the other way; the % refers to the signal ratio; as to activity, negative = inhibition: % is scaled to controls: 0 for no effect and ±100 for the full control effect); details: ER-beta-UAS-bla HEK293T, beta-lactamase FRET ratio, 16 h; activity, negative = inhibition: at 92.4 µM (top of the series) unless noted
# UniProt Q92731, sequence (Q92731 whole entry, looked up): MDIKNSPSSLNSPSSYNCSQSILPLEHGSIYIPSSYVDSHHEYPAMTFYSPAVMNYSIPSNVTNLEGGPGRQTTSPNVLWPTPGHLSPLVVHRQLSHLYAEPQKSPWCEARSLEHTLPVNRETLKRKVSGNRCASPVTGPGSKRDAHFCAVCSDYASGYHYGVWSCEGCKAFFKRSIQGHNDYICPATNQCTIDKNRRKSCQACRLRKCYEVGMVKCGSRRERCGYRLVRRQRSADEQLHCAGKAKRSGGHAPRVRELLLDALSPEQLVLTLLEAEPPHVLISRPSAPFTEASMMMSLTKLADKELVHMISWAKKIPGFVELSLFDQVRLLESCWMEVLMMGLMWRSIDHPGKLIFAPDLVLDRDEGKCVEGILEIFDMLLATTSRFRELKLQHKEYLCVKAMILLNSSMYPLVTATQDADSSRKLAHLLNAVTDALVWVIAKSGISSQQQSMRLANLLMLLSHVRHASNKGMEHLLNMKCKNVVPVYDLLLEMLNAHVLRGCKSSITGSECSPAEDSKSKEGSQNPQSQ
# In short: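 ER-beta-UAS-bla HEK293T cells in 2% charcoal-stripped FBS medium treated with compound plus 1nM final 17-beta-estradiol for 16 hr at 37C. Beta-lactamase reporter read by FRET substrate fluorescence after 2 hours at room temperature.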
# [4] = qHTS assay to identify small molecule antagonists of the progesterone receptor (PR) signaling pathway - cell viability counter screen (AID 1346798); details: PR-UAS-bla HEK293T viability, CellTiter-Glo luminescence, 16 h; series mostly up to 92.4 µM; also: nearly all actives have a fitted effect of over 50% in size
# In short: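 Following a 4 hr attachment, PR-UAS-bla HEK293T cells in charcoal-stripped FBS medium were exposed to compounds with R5020 for 16 hr; CellTiter-Glo was added and luminescence read after 30 min at room temperature.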
# [5] = qHTS assay to identify small molecule antagonists of the sonic hedgehog signaling (Shh) pathway (AID 1259369; calls by dose curve; also: nearly all actives have a fitted effect of over 45% in size); details: NIH/3T3 Gli1-Luc reporter, Shh antagonist, luminescence 24 h; series mostly up to 92.4 µM
# In short: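 NIH/3T3 stable Gli1-Luc clone, 2,000 cells/well, 4hr settle; cpd + conditioned medium 24hr; Luc reagent 30min RT; luminescence.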
# [6] = molecular target: Estrogen receptor beta (Homo sapiens) (UniProt Q92731); assay: qHTS assay to identify small molecule agonists of the estrogen receptor beta (ER-beta) signaling pathway (AID 1259377; active = well fitted activation curve with a large enough effect in the signal ratio in the repeat runs, not every such curve was filed as active; inconclusive = weak or mixed curves, or effect the other way; the % refers to the signal ratio; as to activation: % is scaled to controls: 0 for no effect and ±100 for the full control effect); details: ER-beta-UAS-bla HEK293T, beta-lactamase FRET ratio, 16 h; activation: at 92.4 µM (top of the series) unless noted
# In short: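 Read-out: beta-lactamase FRET fluorescence. Cell line: ER-beta-UAS-bla HEK293T in 2% charcoal-stripped FBS. Exposure: 16 hr at 37C. Substrate step: 2 h at room temperature.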
# [7] = qHTS assay to identify small molecule agonists of the estrogen receptor beta (ER-beta) signaling pathway - cell viability counter screen (AID 1259380); details: ER-beta-bla HEK293T viability, CellTiter-Glo luminescence, 16 h; series mostly up to 92.4 µM; also: nearly all actives have a fitted effect of over 30% in size
# In short: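 Measured: luminescence from CellTiter-Glo after 30 min at room temperature, added to wells already read for the LiveBLAzer FRET reporter (2 hr substrate); ER-beta-UAS-bla HEK293T cells had 16 hr compound treatment at 37C, 5% CO2.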
# [8] = qHTS assay to identify small molecule agonists of the estrogen receptor alpha (ER-alpha) signaling pathway in the presence of an antagonist - cell viability counter screen (AID 1259386); details: VM7Luc4E2 viability, CellTiter-Fluor fluorescence, 22 h; series mostly up to 92.4 µM;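 also: cells exposed to compounds for 22 h at 37 °C before the viability read; nearly all actives have a fitted effect of over 30% in size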
# In short: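 The test measures whether compounds kill ER-alpha reporter cells (VM7Luc4E2) under antagonist co-treatment (ICI-182,780, 10.0nM). Fluorescence from CellTiter-Fluor is read after a 22hr exposure.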
# [9] = molecular target: Progesterone receptor (Homo sapiens) (UniProt P06401); assay: qHTS assay to identify small molecule agonists of the progesterone receptor (PR) signaling pathway (AID 1346784; calls by dose curve; also: nearly all actives have a fitted effect of over 30% in size; as to activation: % is scaled to controls: 0 for no effect and ±100 for the full control effect); details: PR-UAS-bla HEK293T, beta-lactamase FRET ratio, 16 h; activation: at 92.4 µM (top of the series) unless noted
# UniProt P06401, sequence (P06401 whole entry, looked up): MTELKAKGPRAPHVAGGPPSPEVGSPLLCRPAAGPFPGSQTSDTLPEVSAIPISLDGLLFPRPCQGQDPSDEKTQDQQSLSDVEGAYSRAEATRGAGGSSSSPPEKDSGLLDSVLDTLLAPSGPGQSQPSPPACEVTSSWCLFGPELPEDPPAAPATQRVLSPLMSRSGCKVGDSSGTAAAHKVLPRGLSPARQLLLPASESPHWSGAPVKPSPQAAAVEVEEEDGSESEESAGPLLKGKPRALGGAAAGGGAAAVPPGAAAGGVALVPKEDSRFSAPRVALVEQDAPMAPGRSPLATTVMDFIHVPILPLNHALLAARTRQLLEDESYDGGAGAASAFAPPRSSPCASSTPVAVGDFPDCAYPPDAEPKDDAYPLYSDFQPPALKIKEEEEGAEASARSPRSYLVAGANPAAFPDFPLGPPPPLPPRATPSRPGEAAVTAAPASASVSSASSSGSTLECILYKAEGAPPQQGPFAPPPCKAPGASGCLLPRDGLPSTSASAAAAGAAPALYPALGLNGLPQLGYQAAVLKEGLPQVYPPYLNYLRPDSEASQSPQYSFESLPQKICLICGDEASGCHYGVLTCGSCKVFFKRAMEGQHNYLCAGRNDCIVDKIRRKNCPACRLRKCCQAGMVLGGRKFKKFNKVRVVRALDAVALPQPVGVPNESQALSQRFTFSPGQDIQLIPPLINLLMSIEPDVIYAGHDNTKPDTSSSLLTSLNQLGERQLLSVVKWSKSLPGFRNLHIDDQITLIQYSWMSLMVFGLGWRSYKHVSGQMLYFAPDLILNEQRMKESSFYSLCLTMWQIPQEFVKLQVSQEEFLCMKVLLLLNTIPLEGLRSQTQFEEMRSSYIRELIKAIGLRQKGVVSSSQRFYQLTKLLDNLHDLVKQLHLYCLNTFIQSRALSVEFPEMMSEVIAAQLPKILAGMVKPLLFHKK
# In short: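 Compounds were tested for PR agonism in HEK 293T cells bearing a beta-lactamase gene under UAS control. Treatment lasted 16 hr at 37C; signal came from fluorescence of a FRET substrate.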
# [10] = molecular target: Progesterone receptor (Homo sapiens) (UniProt P06401); assay: qHTS assay to identify small molecule antagonists of the progesterone receptor (PR) signaling pathway (AID 1346795; active = well fitted inhibition curve with a large enough effect in the signal ratio in the repeat runs, not every such curve was filed as active; inconclusive = weak or mixed curves; the % refers to the signal ratio; as to activity change, negative = inhibition: % is scaled to controls: 0 for no effect and ±100 for the full control effect); details: PR-UAS-bla HEK293T, beta-lactamase FRET ratio, 16 h; activity change, negative = inhibition: at 92.4 µM (top of the series) unless noted
# In short: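 In HEK293T cells bearing the PR-UAS-bla reporter, compound effects on promegestone-driven (1 nM) beta-lactamase expression are assessed after 16 hr using a fluorescent FRET substrate incubated 2 hr at room temperature.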
# [11] = qHTS assay to identify small molecule agonists of the progesterone receptor (PR) signaling pathway - cell viability counter screen (AID 1346799; calls by dose curve; also: nearly all actives have a fitted effect of over 45% in size); details: PR-UAS-bla HEK293T viability, CellTiter-Glo luminescence, 16 h; series mostly up to 92.4 µM
# In short: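 Here, 3,000 PR-UAS-bla HEK293T cells per well were treated with compounds for 16 hr after a 6 hr preincubation at 37C and 5% CO2; cell viability is the CellTiter-Glo luminescence signal.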
# [12] = qHTS assay to identify small molecule antagonists of the estrogen receptor beta (ER-beta) signaling pathway - cell viability counter screen (AID 1259382); details: ER-beta-UAS-bla HEK293T viability, CellTiter-Glo luminescence, 16 h; series mostly up to 92.4 µM; also: nearly all actives have a fitted effect of over 55% in size
# In short: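 Readout: luminescence, CellTiter-Glo, same wells as bla assay. System: ER-beta-UAS-bla GripTite HEK293T, 2% charcoal-stripped FBS. Exposure: compounds plus 1nM 17-beta-estradiol, 16 hr, 37C.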
# [13] = molecular target: Thyrotropin receptor (Homo sapiens) (UniProt P16473); assay: qHTS assay to identify small molecule antagonists of the thyroid stimulating hormone receptor (TSHR) signaling pathway (AID 1259385; calls by dose curve; also: nearly all actives have a fitted effect of over 20% in size); details: TSHR-HEK293 cAMP HTRF, TSH-stimulated antagonist mode; activity change, negative = inhibition: at 92.4 µM (top of the series) unless noted
# UniProt P16473, sequence (P16473 whole entry, looked up): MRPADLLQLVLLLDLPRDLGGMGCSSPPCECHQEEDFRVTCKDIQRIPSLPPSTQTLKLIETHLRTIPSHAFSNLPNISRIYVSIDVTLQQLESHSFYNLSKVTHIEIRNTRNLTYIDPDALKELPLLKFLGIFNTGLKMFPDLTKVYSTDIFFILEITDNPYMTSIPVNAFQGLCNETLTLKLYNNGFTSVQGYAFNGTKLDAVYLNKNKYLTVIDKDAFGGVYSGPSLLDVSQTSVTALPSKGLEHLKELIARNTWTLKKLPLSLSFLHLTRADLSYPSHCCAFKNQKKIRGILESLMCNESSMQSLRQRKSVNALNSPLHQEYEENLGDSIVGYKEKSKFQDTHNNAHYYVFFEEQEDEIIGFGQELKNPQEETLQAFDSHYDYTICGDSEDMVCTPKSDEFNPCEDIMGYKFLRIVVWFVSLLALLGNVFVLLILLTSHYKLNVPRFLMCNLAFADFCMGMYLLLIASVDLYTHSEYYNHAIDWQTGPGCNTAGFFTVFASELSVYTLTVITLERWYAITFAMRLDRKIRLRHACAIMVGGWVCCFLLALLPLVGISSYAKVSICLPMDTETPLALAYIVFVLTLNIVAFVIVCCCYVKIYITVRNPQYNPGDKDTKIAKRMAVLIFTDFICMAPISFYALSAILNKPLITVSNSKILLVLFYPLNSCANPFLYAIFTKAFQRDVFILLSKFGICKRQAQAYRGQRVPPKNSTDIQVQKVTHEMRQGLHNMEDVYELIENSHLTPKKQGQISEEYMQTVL
# In short: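 TSHR-HEK293 cells (800/well) plated 18 h, then compounds with Ro20-1724 and TSH at 1.5 ng/mL final, 30 min at room temperature. cAMP quantified by HTRF (cAMP-d2/anti-cAMP-cryptate, 1 h); 15 concentrations in triplicate.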
# [14] = qHTS assay to identify small molecule antagonists of the TGF-beta/Smad signaling pathway - cell viability counter screen (AID 1346824); details: SBE-bla HEK293T viability, CellTiter-Glo luminescence; series mostly up to 76.8 µM; also: nearly all actives have a fitted effect of over 50% in size
# In short: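 SBE-bla HEK 293T cells, incubated overnight, then compound plus 0.25 ng/mL TGF-beta1 (stock added) for 5 hr at 37 C. Viability was read in the same wells by CellTiter-Glo luminescence after 30 min at room temperature.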
# [15] = qHTS assay to identify small molecule agonists of the androgen receptor (AR) signaling pathway in the presence of an antagonist - cell viability counter screen (AID 1259379); details: MDA-kb2 viability, CellTiter-Fluor, 16 h; series mostly up to 92.4 µM; also: nearly all actives have a fitted effect of over 25% in size
# In short: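 MDA-kb2 viability measured by CellTiter-Fluor fluorescence in the same wells as the luciferase signal; nilutamide 3.0uM final; 15-point compound titration; 16 hr at 37C.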
# Potency is read from the fitted curve at half-maximal effect; tags tell the direction and shape of the fitted curve or compound fluorescence and quenching.
compound,measurement,setting,value
C=CC(=O)OCCO,Potency,[1],"inconclusive: 31.1 µM [cytotoxic, partial curve] and inconclusive: 61.1 µM [cytotoxic, single point]"
same,Potency,[2],"inconclusive: 49.2 µM [cytotoxic, partial curve] and inconclusive: 68.6 µM [cytotoxic, partial curve, poor fit]"
same,Potency,[3],inactive
same,Potency,[4],inactive
Nc1ccc(Cc2ccc(N)c(Cl)c2)cc1Cl,Potency,[1],"inconclusive: 66.3 µM [cytotoxic, single point]"
same,Potency,[2],active: 52.7 µM
same,Potency,[5],active: 21 µM
same,Potency,[6],"inconclusive: 33.2 µM [rising, partial curve]"
same,Potency,[3],"inconclusive: 13.2 µM [rising, partial curve, poor fit]"
same,Potency,[7],active: 18.7 µM
same,Potency,[8],"inconclusive: 46.9 µM [cytotoxic, partial curve, poor fit]"
same,Potency,[9],"inconclusive: 59.1 µM [cytotoxic, partial curve, poor fit]"
same,Potency,[10],active: 13.2 µM
same,Potency,[4],"inconclusive: 74.4 µM [cytotoxic, single point]"
same,Potency,[11],"inconclusive: 66.3 µM [cytotoxic, partial curve, poor fit]"
CCCCC(O)(Cn1cncn1)c1ccc(Cl)cc1Cl (stereo not given),Potency,[1],"inconclusive: 68.5 µM [cytotoxic, single point]"
same,Potency,[2],"inconclusive: 68.5 µM [cytotoxic, single point]"
same,Potency,[3],active: 48.5 µM
same,Potency,[12],inconclusive: 68.5 µM [cytotoxic]
same,Potency,[9],"inconclusive: 61.1 µM [cytotoxic, single point]"
same,Potency,[10],active: 17.2 µM
same,Potency,[4],"inconclusive: 76.9 µM [cytotoxic, single point]"
same,Potency,[11],"inconclusive: 68.5 µM [cytotoxic, single point]"
CN1[C@@H]2CC[C@H]1CC(OC(=O)c1cc(Cl)cc(Cl)c1)C2 (stereo not given in full),Potency,[1],"inconclusive: 13.3 µM [cytotoxic, partial curve]"
same,Potency,[2],"inconclusive: 16.8 µM [cytotoxic, partial curve, poor fit]"
same,Potency,[7],active: 26.6 µM
same,Potency,[13],active: 26.6 µM
same,Potency,[4],"inconclusive: 6.68 µM [cytotoxic, full curve]"
same,Potency,[11],"inconclusive: 2.11 µM [cytotoxic, full curve]"
CO/C=C(/C(=O)OC)c1ccccc1Oc1cc(Oc2ccccc2C#N)ncn1,Potency,[1],"inconclusive: 51.8 µM [cytotoxic, partial curve]"
same,Potency,[5],active: 0.327 µM
same,Potency,[6],inconclusive: 73.1 µM
same,Potency,[3],"inconclusive: 34.6 µM [falling, partial curve]"
same,Potency,[13],active: 61.1 µM
same,Potency,[8],active: 21.7 µM
same,Potency,[9],inconclusive: 73.1 µM
same,Potency,[10],"inconclusive: 31.2 µM [falling, partial curve]"
same,Potency,[11],"inconclusive: 2.43 µM [rising, full curve]"
same,Potency,[14],active: 34.7 µM
COc1ccc(C=O)cc1OC,Potency,[1],"inconclusive: 77.7 µM [cytotoxic, single point]"
same,Potency,[2],"inconclusive: 69.3 µM [cytotoxic, single point]"
same,Potency,[6],"inconclusive: 77.7 µM [activator, single point]"
same,"activity, negative = inhibition",[3],inconclusive: -34%
same,Potency,[7],"inconclusive: 39 µM [cytotoxic, partial curve, poor fit]"
same,Potency,[12],"inconclusive: 69.3 µM [cytotoxic, partial curve]"
same,Potency,[10],inconclusive: 61.8 µM
same,"activity change, negative = inhibition",[10],inconclusive: -5.76%
CCCCCCCCCCCC[N+](C)(C)CCOc1ccccc1,Potency,[1],"inconclusive: 33.5 µM [cytotoxic, single point]"
same,Potency,[2],"inconclusive: 33.5 µM [cytotoxic, single point]"
same,Potency,[15],"inconclusive: 33.5 µM [cytotoxic, single point]"
same,Potency,[13],"inconclusive: 77 µM [falling, partial curve, poor fit]"
same,Potency,[8],inconclusive: 68.6 µM [cytotoxic]
same,Potency,[9],"inconclusive: 68.6 µM [cytotoxic, single point]"
same,Potency,[4],active: 54.5 µM and active: 13.3 µM
same,Potency,[11],active: 24.3 µM and active: 23.7 µM
same,Potency,[14],"active: 43.7 µM and inconclusive: 23.9 µM [cytotoxic, partial curve]"
COC(=O)/C=C(\C)OP(=O)(OC)OC,Potency,[1],inactive
same,"activity, negative = inhibition",[3],inconclusive: -27.1%
same,Potency,[13],"inconclusive: 15.4 µM [falling, partial curve, poor fit]"
same,activation,[9],inconclusive: -4.62%
same,Potency,[10],"inconclusive: 27.3 µM [falling, partial curve]"
same,Potency,[14],active: 0.174 µM
ClCCOCCCl,Potency,[1],inactive
same,Potency,[8],inactive
same,Potency,[10],inactive
C[C@H]1CCC[C@H](O)CCCCCc2cc(O)cc(O)c2C(=O)O1,Potency,[1],"inconclusive: 19.5 µM [cytotoxic, full curve, poor fit]"
same,Potency,[5],"inconclusive: 19.5 µM [inhibitor, full curve, poor fit]"
same,Potency,[15],"inconclusive: 69.1 µM [cytotoxic, single point]"
same,Potency,[8],inconclusive: 69.1 µM [cytotoxic]
same,Potency,[10],inconclusive: 2.75 µM
same,Potency,[4],"inconclusive: 27.5 µM [rising, single point]"
same,Potency,[11],inconclusive: 19.5 µM
Oc1c(Cl)c(Cl)c(Cl)c(Cl)c1Cl,Potency,[1],"inconclusive: 27.2 µM [rising, partial curve, poor fit]"
same,Potency,[7],"inconclusive: 2.72 µM [cytotoxic, partial curve, poor fit] and inconclusive: 2.73 µM [cytotoxic, full curve, poor fit]"
same,Potency,[8],"inconclusive: 54.5 µM [cytotoxic, partial curve]"
same,Potency,[10],active: 59.9 µM and active: 48.6 µM
same,"activity change, negative = inhibition",[10],inconclusive: -29.4% [at 42.5 µM]
same,Potency,[4],"inconclusive: 15 µM [rising, full curve, poor fit]"
same,Potency,[11],"inconclusive: 13.4 µM [rising, partial curve, poor fit] and inconclusive: 21.6 µM [rising, partial curve, poor fit] and inconclusive: 17.2 µM [rising, partial curve, poor fit]"
ClCCCCBr,Potency,[1],"inconclusive: 69.2 µM [rising, single point]"
same,Potency,[6],inactive
same,Potency,[10],inactive
same,Potency,[11],"inconclusive: 0.978 µM [cytotoxic, single point]"
Nc1ccc([N+](=O)[O-])cc1[N+](=O)[O-],Potency,[1],"inconclusive: 59.6 µM [cytotoxic, single point]"
same,Potency,[10],"inconclusive: 47.3 µM [falling, partial curve]"
